Results published in the supplement of paper PMC3334620.
In all, about 33,000 sequences were measured (“E-score (-0.5 to 0.5)”: median about -0.035, highest 2% from about 0.35 on). This is one part of the list.

Molecular target: T1, Pdr3 (UniProt P33200)
T1 sequence: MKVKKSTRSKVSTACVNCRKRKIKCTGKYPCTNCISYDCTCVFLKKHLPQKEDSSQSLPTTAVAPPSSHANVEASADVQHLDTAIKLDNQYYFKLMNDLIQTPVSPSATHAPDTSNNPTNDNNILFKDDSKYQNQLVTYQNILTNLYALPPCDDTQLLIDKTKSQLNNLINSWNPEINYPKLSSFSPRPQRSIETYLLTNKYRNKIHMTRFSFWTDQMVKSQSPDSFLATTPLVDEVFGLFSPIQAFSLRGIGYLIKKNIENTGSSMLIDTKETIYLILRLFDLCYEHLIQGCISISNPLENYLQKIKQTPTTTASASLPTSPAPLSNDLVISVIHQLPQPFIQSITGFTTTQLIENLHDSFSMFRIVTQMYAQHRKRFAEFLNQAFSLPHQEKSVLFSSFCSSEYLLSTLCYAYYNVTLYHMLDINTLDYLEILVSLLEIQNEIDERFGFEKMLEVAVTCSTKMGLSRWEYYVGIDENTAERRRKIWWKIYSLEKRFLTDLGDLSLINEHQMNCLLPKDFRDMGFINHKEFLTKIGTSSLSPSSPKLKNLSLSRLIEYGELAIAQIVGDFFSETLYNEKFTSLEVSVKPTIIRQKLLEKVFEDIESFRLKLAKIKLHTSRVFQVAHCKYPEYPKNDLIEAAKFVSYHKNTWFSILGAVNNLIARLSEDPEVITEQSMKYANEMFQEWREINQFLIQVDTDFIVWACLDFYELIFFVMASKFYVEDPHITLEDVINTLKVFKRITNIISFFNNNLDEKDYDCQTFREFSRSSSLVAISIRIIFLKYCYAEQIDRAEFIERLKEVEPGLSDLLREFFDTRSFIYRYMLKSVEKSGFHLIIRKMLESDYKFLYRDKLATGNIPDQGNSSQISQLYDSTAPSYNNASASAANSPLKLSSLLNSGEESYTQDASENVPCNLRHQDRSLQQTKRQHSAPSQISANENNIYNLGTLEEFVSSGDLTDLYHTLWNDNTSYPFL
Assay: PBM E-score (8-mer binding enrichment) (E-score (-0.5 to 0.5)); higher = stronger / more preferred TF binding; most listed sequences are background and not binding sites
Conditions: protein concentration: 200 nM; construct: GST-full length
Summary of the method: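 For each ungapped eight-base word taken together with its reverse complement, the Universal PBM Analysis Suite assigned an E-score. Binding data came from GST-tagged yeast transcription factors, applied at about 100-200 nM, on universal all-10-mer Agilent arrays made double-stranded by primer extension. Fluorescent anti-GST marked bound protein, and scans were normalised with masliner.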

Sequence | PBM E-score
ATATATAC | 0.19
AGCTCCCG | 0.0843
CATTCAAA | 0.19
AAAGCTGG | -0.0169
GTGTCAAC | -0.0447
AGAATTTG | -0.158
AAATCCGC | 0.196
CGGCACAA | 0.121
ACAATTCG | 0.0843
AGATGTTC | -0.143
GACCCACA | 0.0886
ATACGAAA | 0.182
CCGCCCGA | 0.269
AGACCCTA | -0.168
CAAGCCAC | -0.313
AAGTCTTC | -0.257
AAATACGC | 0.156
ATTCAGCG | -0.011
CGCTGCAC | 0.121
GCCGTAAC | -0.0415
CTGTTAAA | -0.227
AAATCGAG | 0.104
ACCAGGGG | -0.0427
ACTAATAC | 0.104

Sequence | PBM E-score
CGGCCTTC | 0.268
CCATGTAC | -0.237
GGTTTGTA | -0.0635
GTGCGTAA | -0.123
ACAAGAGC | -0.0111
CAGACAGC | -0.078
ATGTATTG | 0.116
AATTCCTG | -0.021
CTTCGCAC | -0.151
TGGAACAA | -0.0164
AATGCGCA | 0.232
AGTTACGG | 0.0704
GTCTCATA | -0.1
CATTTTTC | -0.00253
TCACCACA | -0.0208
ATTACAAA | -0.0697
CAGGTATC | -0.0844
AACAATAC | 0.0524
CAGTTACC | -0.0312
GATAAATC | 0.196
ACGGGACT | 0.183
ACCTAAGT | -0.0261
AACTAACC | 0.156
ATTGTCAA | -0.0556

Sequence | PBM E-score
CGAGAGCC | -0.0597
GAAATGGC | -0.0959
AAAAGCGC | -0.0799
CGTAGGGC | -0.157
AATTGACA | -0.141
CAGCGGTA | 0.0263
CATAGAAG | -0.0582
ACGCCGCA | 0.181
TCCCTCCA | -0.178
AGCCTAGA | -0.336
CAGCCGGA | 0.398
AATACTGC | 0.0423
AGCTCGAA | 0.111
CAATGGCG | 0.166
TCGAGGCA | -0.123
GTGCCGCA | 0.0517
TCATTCCA | 0.14
TCGAATCA | -0.0653
GCCCACAA | -0.177
ACGGCACC | -0.0873
ACTCCTTA | -0.185
CATTCCTA | -0.14
AAGTATAA | 0.0419
GTTTGCAA | -0.0396

Sequence | PBM E-score
AGGTTGTC | -0.155
CGACGCTC | 0.0499
ATATTTTC | 0.233
ACGCTGTC | -0.0291
AAGGCCTC | -0.161
ACTCAAGA | -0.2
CTGCACAC | -0.165
CTGGGCCC | -0.117
CTACGAGC | -0.185
CCTAGTCG | -0.23
AGATAGCG | -0.177
AACGACCG | -0.146
AGTAAATA | 0.0827
ATCTCTGC | -0.0587
ATGGCTTG | -0.196
ATTTACTG | 0.0661
AACCTGTG | -0.256
AATTGGGA | 0.057
TAACGCTA | -0.172
AACAATGT | -0.135
CGATTCGA | 0.143
CCGCGCAA | 0.192
